The other results are listed elsewhere or left out. Most values come without repeats; read them as rough.
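Also: cells treated in 1,536-well plates, then fixed and DAPI-stained, with nuclei counted from automated high-throughput microscope images.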

One assay relates to WM1745. In words: cell count relative to DMSO control; melanoma cells; higher = more viable cells. The settings on record: library dose: standard library concentration; 72 h.
In turn, `N#CC[C@H](C1CCCC1)n1cc(-c2ncnc3[nH]ccc23)cn1` [ruxolitinib] + Cc1ccc(NC(=O)c2cccc(N(C)C)c2)cc1NC(=O)c1ccc(O)cc1 [ZM336372] (first compound 5 µM, partner dose 10 µM) returned a cell count of 82.1%.

The compound `Cc1cc(Nc2cc(N3CCN(C)CC3)nc(Sc3ccc(NC(=O)C4CC4)cc3)n2)n[nH]1` [Tozasertib] + CO[C@@H]1[C@H](N(C)C(=O)c2ccccc2)C[C@H]2O[C@]1(C)n1c3ccccc3c3c4c(c5c6ccccc6n2c5c31)C(=O)NC4 [Midostaurin] (first compound 0.03 µM, partner dose 0.4 µM) yielded a cell count of 28.2%.

On to `N#CC[C@H](C1CCCC1)n1cc(-c2ncnc3[nH]ccc23)cn1` [ruxolitinib] + COc1cc(Nc2ncc(F)c(Nc3ccc4c(n3)NC(=O)C(C)(C)O4)n2)cc(OC)c1OC [Tamatinib] (first compound 5 µM, partner dose 2 µM), for which the cell count stood at 19.6%.

Turning to `Cc1cc(Nc2cc(N3CCN(C)CC3)nc(Sc3ccc(NC(=O)C4CC4)cc3)n2)n[nH]1` [Tozasertib] + O=C(O)c1ccc(-c2c[nH]c3ncc(-c4ccccc4)cc23)cc1C1CCCC1 [GSK650394] (first compound 0.03 µM, partner dose 0.8 µM), the cell count amounted to 74.2%.

As for `Cc1cc(Nc2cc(N3CCN(C)CC3)nc(Sc3ccc(NC(=O)C4CC4)cc3)n2)n[nH]1` [Tozasertib] + COc1cc(Nc2ncc(F)c(Nc3ccc4c(n3)NC(=O)C(C)(C)O4)n2)cc(OC)c1OC [Tamatinib] (first compound 0.03 µM, partner dose 2 µM), the cell count was 32.2%.

With `Cc1cc(Nc2cc(N3CCN(C)CC3)nc(Sc3ccc(NC(=O)C4CC4)cc3)n2)n[nH]1` [Tozasertib] + Cn1cncc1[C@@](N)(c1ccc(Cl)cc1)c1ccc2c(c1)c(-c1cccc(Cl)c1)cc(=O)n2C [tipifarnib] (first compound 0.03 µM, partner dose 0.05 µM), the cell count is 66.4%.

Compound `CC[C@]1(O)C[C@H]2CN(CCc3c([nH]c4ccccc34)[C@@](C(=O)OC)(c3cc4c(cc3OC)N(C=O)[C@H]3[C@@](O)(C(=O)OC)[C@H](OC(C)=O)[C@]5(CC)C=CCN6CC[C@]43[C@@H]65)C2)C1` [vincristine] + NC(=O)Nc1cc(-c2cccc(F)c2)sc1C(=O)N[C@H]1CCCNC1 [AZD7762] (first compound 0.0005 µM, partner dose 0.1 µM) showed a cell count of 53.8%.

On to `Cc1cc(Nc2cc(N3CCN(C)CC3)nc(Sc3ccc(NC(=O)C4CC4)cc3)n2)n[nH]1` [Tozasertib] + CN(C)S(=O)(=O)c1ccc2c(c1)/C(=C/c1cc3c([nH]1)CCCC3)C(=O)N2 [SU6656] (first compound 0.03 µM, partner dose 2 µM), for which the cell count came to 49.4%.

With `N#CC[C@H](C1CCCC1)n1cc(-c2ncnc3[nH]ccc23)cn1` [ruxolitinib] + COc1cc2c(Oc3ccc4[nH]c(C)cc4c3F)ncnc2cc1OCCCN1CCCC1 [cediranib] (first compound 5 µM, partner dose 2 µM), the cell count was determined as 91.4%.

Consider `CC[C@]1(O)C[C@H]2CN(CCc3c([nH]c4ccccc34)[C@@](C(=O)OC)(c3cc4c(cc3OC)N(C=O)[C@H]3[C@@](O)(C(=O)OC)[C@H](OC(C)=O)[C@]5(CC)C=CCN6CC[C@]43[C@@H]65)C2)C1` [vincristine] + COc1cc2c(Oc3ccc4[nH]c(C)cc4c3F)ncnc2cc1OCCCN1CCCC1 [cediranib] (first compound 0.0005 µM, partner dose 2 µM), for which the cell count was found to be 84.8%.

In the case of `CC[C@]1(O)C[C@H]2CN(CCc3c([nH]c4ccccc34)[C@@](C(=O)OC)(c3cc4c(cc3OC)N(C=O)[C@H]3[C@@](O)(C(=O)OC)[C@H](OC(C)=O)[C@]5(CC)C=CCN6CC[C@]43[C@@H]65)C2)C1` [vincristine] + O=C(Nc1cccc(Cl)c1)Nc1ncc(CCNc2ncnc3ccsc23)s1 [SNS314] (first compound 0.0005 µM, partner dose 0.004 µM), the cell count amounted to 68%.

The test system of another assay is WM3526. The description is as above. The settings on record: library dose: standard library concentration; 72 h.
Compound `N#CC[C@H](C1CCCC1)n1cc(-c2ncnc3[nH]ccc23)cn1` [ruxolitinib] + O=C(O)c1ccc(-c2c[nH]c3ncc(-c4ccccc4)cc23)cc1C1CCCC1 [GSK650394] (first compound 5 µM, partner dose 0.8 µM) had a cell count of 89.7%.

Compound `CC[C@]1(O)C[C@H]2CN(CCc3c([nH]c4ccccc34)[C@@](C(=O)OC)(c3cc4c(cc3OC)N(C=O)[C@H]3[C@@](O)(C(=O)OC)[C@H](OC(C)=O)[C@]5(CC)C=CCN6CC[C@]43[C@@H]65)C2)C1` [vincristine] + OCCn1cc(-c2cnc3nnn(Cc4ccc5ncccc5c4)c3n2)cn1 [PF04217903] (first compound 0.0005 µM, partner dose 5 µM) displayed a cell count of 65.9%.

Consider `Cc1cc(Nc2cc(N3CCN(C)CC3)nc(Sc3ccc(NC(=O)C4CC4)cc3)n2)n[nH]1` [Tozasertib] + CC1(C)NC(=O)N(c2ccc([N+](=O)[O-])c(C(F)(F)F)c2)C1=O [nilutamide] (first compound 0.03 µM, partner dose 5 µM), for which the cell count came out at 97.1%.

As for `Cc1cc(Nc2cc(N3CCN(C)CC3)nc(Sc3ccc(NC(=O)C4CC4)cc3)n2)n[nH]1` [Tozasertib] + NC(=O)Nc1cc(-c2cccc(F)c2)sc1C(=O)N[C@H]1CCCNC1 [AZD7762] (first compound 0.03 µM, partner dose 0.1 µM), the cell count turned out to be 49.3%.

With `Cc1cc(Nc2cc(N3CCN(C)CC3)nc(Sc3ccc(NC(=O)C4CC4)cc3)n2)n[nH]1` [Tozasertib] + CN(NC(=O)CC(=O)NN(C)C(=S)c1ccccc1)C(=S)c1ccccc1 [STA4783] (first compound 0.03 µM, partner dose 0.03 µM), the cell count turned out to be 99.6%.

The compound `Cc1cc(Nc2cc(N3CCN(C)CC3)nc(Sc3ccc(NC(=O)C4CC4)cc3)n2)n[nH]1` [Tozasertib] + C=CCn1c(=O)c2cnc(Nc3ccc(N4CCN(C)CC4)cc3)nc2n1-c1cccc(C(C)(C)O)n1 [MK1775] (first compound 0.03 µM, partner dose 0.1 µM) returned a cell count of 57.8%.

In the case of `Cc1cc(Nc2cc(N3CCN(C)CC3)nc(Sc3ccc(NC(=O)C4CC4)cc3)n2)n[nH]1` [Tozasertib] + Cc1ccc(NC(=O)c2cccc(N(C)C)c2)cc1NC(=O)c1ccc(O)cc1 [ZM336372] (first compound 0.03 µM, partner dose 10 µM), the cell count came to 82.2%.

`CC[C@]1(O)C[C@H]2CN(CCc3c([nH]c4ccccc34)[C@@](C(=O)OC)(c3cc4c(cc3OC)N(C=O)[C@H]3[C@@](O)(C(=O)OC)[C@H](OC(C)=O)[C@]5(CC)C=CCN6CC[C@]43[C@@H]65)C2)C1` [vincristine] + C[C@@H]1CCN(C(=O)CC#N)C[C@@H]1N(C)c1ncnc2[nH]ccc12 [CP690550] (first compound 0.0005 µM, partner dose 5 µM) displayed a cell count of 51.7%.

Compound `Cc1cc(Nc2cc(N3CCN(C)CC3)nc(Sc3ccc(NC(=O)C4CC4)cc3)n2)n[nH]1` [Tozasertib] + CC(C)(C)c1cnc(CSc2cnc(NC(=O)C3CCNCC3)s2)o1 [SNS-032] (first compound 0.03 µM, partner dose 0.05 µM) yielded a cell count of 97.5%.

For the compound `CC[C@]1(O)C[C@H]2CN(CCc3c([nH]c4ccccc34)[C@@](C(=O)OC)(c3cc4c(cc3OC)N(C=O)[C@H]3[C@@](O)(C(=O)OC)[C@H](OC(C)=O)[C@]5(CC)C=CCN6CC[C@]43[C@@H]65)C2)C1` [vincristine] + C=CCn1c(=O)c2cnc(Nc3ccc(N4CCN(C)CC4)cc3)nc2n1-c1cccc(C(C)(C)O)n1 [MK1775] (first compound 0.0005 µM, partner dose 0.1 µM), the cell count is 41%.

`CC[C@]1(O)C[C@H]2CN(CCc3c([nH]c4ccccc34)[C@@](C(=O)OC)(c3cc4c(cc3OC)N(C=O)[C@H]3[C@@](O)(C(=O)OC)[C@H](OC(C)=O)[C@]5(CC)C=CCN6CC[C@]43[C@@H]65)C2)C1` [vincristine] + Cn1cncc1[C@@](N)(c1ccc(Cl)cc1)c1ccc2c(c1)c(-c1cccc(Cl)c1)cc(=O)n2C [tipifarnib] (first compound 0.0005 µM, partner dose 0.05 µM) returned a cell count of 59.4%.

In the case of `N#CC[C@H](C1CCCC1)n1cc(-c2ncnc3[nH]ccc23)cn1` [ruxolitinib] + NCC(=O)Nc1ccc(-n2nc(C(F)(F)F)cc2-c2ccc3c(ccc4ccccc43)c2)cc1 [OSU03012] (first compound 5 µM, partner dose 5 µM), the cell count was found to be 55.1%.

Compound `CC[C@]1(O)C[C@H]2CN(CCc3c([nH]c4ccccc34)[C@@](C(=O)OC)(c3cc4c(cc3OC)N(C=O)[C@H]3[C@@](O)(C(=O)OC)[C@H](OC(C)=O)[C@]5(CC)C=CCN6CC[C@]43[C@@H]65)C2)C1` [vincristine] + Cc1cc(N2CCOCC2)cc2[nH]c(-c3c(NC[C@@H](O)c4cccc(Cl)c4)cc[nH]c3=O)nc12 [BMS536924] (first compound 0.0005 µM, partner dose 1 µM) gave a cell count of 47.3%.

For the compound `CC[C@]1(O)C[C@H]2CN(CCc3c([nH]c4ccccc34)[C@@](C(=O)OC)(c3cc4c(cc3OC)N(C=O)[C@H]3[C@@](O)(C(=O)OC)[C@H](OC(C)=O)[C@]5(CC)C=CCN6CC[C@]43[C@@H]65)C2)C1` [vincristine] + CC(C)(C)c1cnc(CSc2cnc(NC(=O)C3CCNCC3)s2)o1 [SNS-032] (first compound 0.0005 µM, partner dose 0.05 µM), the cell count amounted to 54.2%.
